{
  "source": "PubChem BioAssay AID504339",
  "about": "(National Center for Advancing Translational Sciences (NCATS), 2011)",
  "note": "Screen size: about 390,000 compounds; about 17,000 (4.4%) were called active. The shares of active, inactive and inconclusive entries below differ from those in the screen. Calls come from the whole dose curve; as a rule, active = well fitted inhibition curve with a large enough effect; inconclusive = small, poorly fitted or top-dose-only effect; inactive = no such curve, though single readings can be large or run the other way. Potencies of inconclusive entries are doubtful fits and often do not repeat. % is set by controls: 0 for no effect and ±100 for the full control effect; potency is the fitted concentration of half-maximal effect; tags give direction and shape of the fitted curve.",
  "data": [
    {"target": "Lysine-specific demethylase 4A (Homo sapiens) (UniProt O75164)", "sequence (O75164 whole entry, looked up, the tested form may be a part)": "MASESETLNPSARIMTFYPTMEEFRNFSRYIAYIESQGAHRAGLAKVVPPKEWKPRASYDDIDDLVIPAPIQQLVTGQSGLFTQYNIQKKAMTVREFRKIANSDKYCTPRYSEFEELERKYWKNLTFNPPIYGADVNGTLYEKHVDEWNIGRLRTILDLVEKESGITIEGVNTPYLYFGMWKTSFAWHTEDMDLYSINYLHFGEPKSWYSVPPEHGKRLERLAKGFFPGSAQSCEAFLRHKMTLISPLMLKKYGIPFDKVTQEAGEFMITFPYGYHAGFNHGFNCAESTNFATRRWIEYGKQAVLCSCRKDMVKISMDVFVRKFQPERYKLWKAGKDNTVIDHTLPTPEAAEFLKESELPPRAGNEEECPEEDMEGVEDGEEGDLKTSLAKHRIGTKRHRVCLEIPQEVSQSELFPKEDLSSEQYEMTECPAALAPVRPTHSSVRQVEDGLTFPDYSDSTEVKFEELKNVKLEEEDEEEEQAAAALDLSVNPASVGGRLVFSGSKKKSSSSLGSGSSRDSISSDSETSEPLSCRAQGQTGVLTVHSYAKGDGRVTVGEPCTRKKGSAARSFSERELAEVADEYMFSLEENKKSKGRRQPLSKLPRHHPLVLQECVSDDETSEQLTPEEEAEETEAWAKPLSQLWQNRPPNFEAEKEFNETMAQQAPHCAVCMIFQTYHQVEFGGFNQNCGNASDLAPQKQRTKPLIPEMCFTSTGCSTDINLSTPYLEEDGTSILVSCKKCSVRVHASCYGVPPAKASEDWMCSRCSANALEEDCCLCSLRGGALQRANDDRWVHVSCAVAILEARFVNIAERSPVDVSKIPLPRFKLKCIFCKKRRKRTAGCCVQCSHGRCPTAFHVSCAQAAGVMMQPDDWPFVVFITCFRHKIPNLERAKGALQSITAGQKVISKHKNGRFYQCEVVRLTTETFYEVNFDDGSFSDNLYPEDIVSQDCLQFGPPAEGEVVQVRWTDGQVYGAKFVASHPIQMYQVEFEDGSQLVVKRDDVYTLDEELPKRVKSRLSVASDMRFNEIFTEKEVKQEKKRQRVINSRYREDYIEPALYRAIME", "assay": "qHTS Assay for Inhibitors of JMJD2A-Tudor Domain; note: nearly all actives have a fitted effect of over 50% in size", "settings": "AlphaScreen JMJD2A-Tudor / H3K4me3 peptide binding; activity change, negative = inhibition: at 114 µM (top of the series)", "values": [
      {"compound": "O=C(N/N=C/c1ccc(F)cc1)c1cc(-c2ccco2)nc2ccccc12", "Potency": "inconclusive: 56.2 µM [inhibitor, partial curve, poor fit]"},
      {"compound": "COc1ccccc1N1CCN(CC(=O)Nc2nc(C)c(C(=O)N(C)C)s2)CC1", "Potency": "inactive"},
      {"compound": "COc1cc(/C=N/N2CCN(c3ccccc3)CC2)cc(OC)c1OC(C)=O", "Potency": "active: 56.2 µM"},
      {"compound": "Fc1ccc(N2CCN(C3=Nc4cccc5cccc3c45)CC2)cc1", "Potency": "active: 25.1 µM"},
      {"compound": "CC(C)(C)c1cc(=O)n(-c2ccccc2)[nH]1", "Potency": "inactive"},
      {"compound": "Cc1ccc(/C=C2/SC(=Nc3ccc(F)cc3)NC2=O)s1", "Potency": "inconclusive: 50.1 µM [inhibitor, partial curve]"},
      {"compound": "COc1cc(/C=N\\NC(=O)c2ccc(-c3ccccc3)cc2)ccc1OCC(N)=O", "Potency": "active: 89.1 µM"},
      {"compound": "CC1=NN2C(=N)/C(=C\\c3ccc(SCc4ccccc4)o3)C(=O)N=C2S1", "Potency": "inconclusive: 89.1 µM [inhibitor, single point]"},
      {"compound": "CCOC(=O)c1c(S(=O)(=O)N2CCCC(C(=O)NCc3cccc(OC)c3)C2)c(C)n(C)c1C", "note": "(centres undefined)", "Potency": "inconclusive: 100 µM [inhibitor, partial curve]"},
      {"compound": "O=C(Oc1ccc2c(=O)c(Oc3ccc4ccccc4c3)coc2c1)c1cncc(Br)c1", "Potency": "inactive"},
      {"compound": "CCSc1nc2c(c(-c3ccc(C)o3)c1C#N)CCCC2", "Potency": "inactive"},
      {"compound": "Cc1cc(-c2nc(C)c(C(=O)NNS(=O)(=O)c3ccc(Cl)cc3Cl)s2)no1", "Potency": "inconclusive: 89.1 µM [inhibitor, partial curve]"},
      {"compound": "C/C(=N/NC(=O)c1sc(NS(=O)(=O)c2ccccc2)nc1C)c1sc(N)nc1C", "Potency": "inconclusive: 79.4 µM [inhibitor, single point]"},
      {"compound": "O=C(c1cccnc1)N1CCN(Cc2cccc(F)c2)CC1", "Potency": "active: 1.58 µM"},
      {"compound": "O=C(CCCC(=O)NCc1ccc(F)cc1)NCc1ccc(F)cc1", "Potency": "inactive"},
      {"compound": "CC(C)=CCc1c(O)ccc2c1OC(c1ccc(O)c(O)c1)CC2=O", "note": "(centres undefined)", "Potency": "inconclusive: 50.1 µM [inhibitor, partial curve]"},
      {"compound": "Cc1ccc(S(=O)(=O)n2ccc(OC(=O)c3cccs3)n2)cc1", "Potency": "inactive"},
      {"compound": "Cc1onc(-c2ccccc2Cl)c1C(=O)Nc1ccc(N2CCOCC2)cc1", "Potency": "inconclusive: 50.1 µM [inhibitor, partial curve]"},
      {"compound": "COc1cccc(C2c3c(ncn(-c4ccc5c(c4)OCO5)c3=N)Oc3ccc4ccccc4c32)c1", "note": "(centres undefined)", "Potency": "inconclusive: 50.1 µM [inhibitor, partial curve]"},
      {"compound": "COc1ccc(CNC(=O)Nc2cccs2)cc1OC", "Potency": "inactive"},
      {"compound": "Cc1cc(=O)[nH]c(CN2CCC(c3ccccc3)CC2)n1", "Potency": "inconclusive: 2.24 µM [inhibitor, partial curve, poor fit]"},
      {"compound": "O=C(Nc1c(-c2ccccc2)nc2ccccn12)c1cccc(F)c1", "Potency": "inconclusive: 12.6 µM [inhibitor, partial curve]"},
      {"compound": "CCN(CC)CCN1C(=O)C(=O)/C(=C(/O)c2cccc(OC)c2)C1c1ccccn1", "note": "(centres undefined)", "Potency": "inconclusive: 79.4 µM [inhibitor, partial curve]"},
      {"compound": "OCCC1CN(C2CCN(c3ccccc3)CC2)CCN1Cc1ccc(F)c(F)c1", "note": "(centres undefined)", "Potency": "inactive"},
      {"compound": "COc1ccc(-n2c(C)cc(C(=O)COC(=O)Cn3cnc4ccccc43)c2C)cc1", "Potency": "inconclusive: 79.4 µM [inhibitor, single point]"},
      {"compound": "CCOc1ccc(CCNC(=O)c2ccc(Cl)c(S(=O)(=O)N3CCOCC3)c2)cc1OCC", "Potency": "inconclusive: 35.5 µM [inhibitor, full curve]"},
      {"compound": "CC(=O)NC(C)c1cc(Cl)c2cccnc2c1O", "note": "(centres undefined)", "Potency": "active: 79.4 µM"},
      {"compound": "COc1cc(OC)c(NC(=O)C(=O)CC(=O)c2ccc(C)cc2C)cc1Cl", "Potency": "inactive"},
      {"compound": "COc1c(Cl)cccc1NC(=O)c1c(NC(=O)Cc2ccccc2)sc2c1CCCC2", "Potency": "inactive"},
      {"compound": "COc1ccccc1OCC(=O)NCC1CCCN(C(=O)c2ccccc2SC)C1", "note": "(centres undefined)", "Potency": "inconclusive: 12.6 µM [inhibitor, partial curve, poor fit]"},
      {"compound": "COc1cccc(C(=O)NC(c2ccccc2)C2CCCC2)c1", "note": "(centres undefined)", "Potency": "active: 22.4 µM"},
      {"compound": "Cc1ccc(-c2nn(-c3cccc(F)c3)cc2CN(Cc2nccn2C)C(C)C)o1", "Potency": "inconclusive: 44.7 µM [inhibitor, partial curve]"},
      {"compound": "Cc1ccc(S(=O)(=O)N2CCN(C(C)CC(=O)O)CC2)cc1", "note": "(centres undefined)", "Potency": "active: 5.62 µM"},
      {"compound": "Cc1cccc2sc(NNC(=O)c3ccc(S(=O)(=O)N4CCCC(C)C4)cc3)nc12", "note": "(centres undefined)", "Potency": "active: 11.2 µM"},
      {"compound": "CC(=O)C1=C(C)NC(SCC(=O)Nc2nccs2)=C(C#N)C1c1ccccc1Cl", "note": "(centres undefined)", "Potency": "inconclusive: 44.7 µM [inhibitor, single point]"},
      {"compound": "Cc1ccccc1C(=O)N1CCC(C(=O)Nc2ccc(S(=O)(=O)N3CCCC3)cc2)CC1", "activity change, negative = inhibition": "inactive: -10.7% [at 11.4 µM]"},
      {"compound": "Cc1cc(C)n2nc(C(=O)OCC(=O)c3cc(C)n(CC4CCCO4)c3C)nc2n1", "note": "(centres undefined)", "Potency": "inactive"},
      {"compound": "CCOc1cccc(NC(=O)CSc2ncc(-c3ccccc3)[nH]2)c1", "Potency": "inconclusive: 39.8 µM [inhibitor, partial curve]"},
      {"compound": "O=C(CNCCc1ccccc1)N1CCc2ccccc2C1", "Potency": "active: 3.16 µM"},
      {"compound": "Cc1cccc(C(=O)N2CCCCCC2)c1", "Potency": "inactive"},
      {"compound": "COc1ccc(Cl)cc1CNCCSc1nnnn1C", "Potency": "inactive"},
      {"compound": "Cc1cc2n(n1)SC(Nc1ccccc1)N2", "note": "(centres undefined)", "Potency": "active: 7.94 µM"},
      {"compound": "Cc1ccc2onc(CNC(=O)Nc3cc(F)ccc3F)c2c1", "Potency": "inactive"},
      {"compound": "Cc1ccn2c(Nc3ccc4c(c3)OCCO4)c(-c3cccs3)nc2c1", "Potency": "inconclusive: 12.6 µM [inhibitor, full curve]"},
      {"compound": "CCCN=C1N(C)C[C@@H]2[C@@H]3C(=O)N(C)C(=O)[C@@H]3[C@](C)(C(=O)OC)N12", "Potency": "inactive"},
      {"compound": "O=c1c2cn[nH]c2[nH]c(=S)n1-c1cccc(Cl)c1", "Potency": "inactive"},
      {"compound": "O=C(CSCc1ccco1)c1cccs1", "Potency": "inconclusive: 79.4 µM [inhibitor, partial curve]"},
      {"compound": "COc1ccc(NC(=O)Cn2c(=O)n(CCCC(=O)NCCc3ccc(C)cc3)c(=O)c3ccccc32)cc1Cl", "Potency": "inactive"},
      {"compound": "COc1ccc(N2CCN(c3ncnc4onc(-c5ccc(F)cc5)c34)CC2)cc1", "Potency": "inconclusive: 35.5 µM [inhibitor, partial curve]"}
    ]}
  ]
}
